Whole data set: some 33,000 sequences, median “E-score (-0.5 to 0.5)” near -0.032, cut for the highest 2% near 0.36. The list shows a part of the results.
biological target: T1, Sko1 (UniProt Q02100); test: PBM E-score (8-mer binding enrichment) (E-score (-0.5 to 0.5)); higher = stronger / more preferred TF binding; most listed sequences are background and not binding sites; details: protein concentration: 200 nM; construct: GST-full length
T1 sequence: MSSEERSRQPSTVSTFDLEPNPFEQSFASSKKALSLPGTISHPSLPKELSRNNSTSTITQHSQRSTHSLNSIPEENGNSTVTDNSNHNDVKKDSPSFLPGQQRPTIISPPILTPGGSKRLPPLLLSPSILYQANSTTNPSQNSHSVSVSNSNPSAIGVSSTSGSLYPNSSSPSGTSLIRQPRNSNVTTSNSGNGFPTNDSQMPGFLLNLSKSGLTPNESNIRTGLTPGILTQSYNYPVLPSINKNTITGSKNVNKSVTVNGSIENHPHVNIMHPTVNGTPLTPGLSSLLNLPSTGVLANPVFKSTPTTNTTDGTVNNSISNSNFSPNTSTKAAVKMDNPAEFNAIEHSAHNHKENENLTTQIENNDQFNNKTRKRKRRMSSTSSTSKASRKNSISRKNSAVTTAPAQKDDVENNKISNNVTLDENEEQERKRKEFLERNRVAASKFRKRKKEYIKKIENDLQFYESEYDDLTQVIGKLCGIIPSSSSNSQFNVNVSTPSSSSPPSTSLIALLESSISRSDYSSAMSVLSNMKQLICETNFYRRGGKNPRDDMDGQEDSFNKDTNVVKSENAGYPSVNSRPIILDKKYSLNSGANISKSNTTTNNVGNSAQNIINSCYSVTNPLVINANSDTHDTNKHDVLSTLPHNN
Method in brief: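 For each ungapped eight-base word taken together with its reverse complement, the Universal PBM Analysis Suite assigned an E-score. Binding data came from GST-tagged yeast transcription factors, applied at about 100-200 nM, on universal all-10-mer Agilent arrays made double-stranded by primer extension. Fluorescent anti-GST marked bound protein, and scans were normalised with masliner.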

Sequence | PBM E-score
TGAGGACA | 0.0403
AAGCACGG | -0.00706
GCTCGCAC | -0.112
TCTAACCA | 0.124
CGGCCGGA | -0.308
CCTACAGC | -0.116
AAACATTA | 0.0863
CCCACAGG | -0.238
CCGCTTAG | -0.278
ACGCACTA | 0.321
AGCGCGGA | -0.239
CTTTGCCC | -0.139
CCCCTGAA | -0.0722
ATGTATGG | 0.0987
AGACCCCC | -0.375
ATCTATTA | 0.167
CATCCAAG | -0.175
AGCACGAT | -0.0247
CCTTCAAG | -0.0978
AAGGGTAG | -0.194
GCTAGTTA | 0.0505
GCAGAATA | 0.0667
CAACTCAC | 0.00457
ACGAGCCC | -0.159
TGAACAAA | 0.227

Sequence | PBM E-score
AGGATATG | 0.016
ATTCTATG | 0.0207
ATACCGAA | 0.159
CAGTCTGG | -0.312
ATACGGGC | -0.187
ATGTTCAA | 0.0346
CCGCCTTA | 0.0745
CCGCACGG | -0.099
ACAATGCA | 0.0968
CAGGTTGG | -0.151
CGAAAGCC | -0.2
CGTGGTTA | 0.206
AAGACACG | 0.256
AGTCCGTC | 0.0882
AAGTTCCT | -0.0579
AGTACTAA | 0.109
AGATTCCA | 0.203
ATAGTAGA | 0.0227
ACGATGCA | 0.15
AGTATCTG | -0.0323
ACTGTTGA | -0.0735
TATATGAA | 0.119
GAGGTATA | 0.0598
GGCCAACC | -0.242
TATACGAA | 0.301

Sequence | PBM E-score
AATGATAA | 0.317
ACACTCCT | -0.189
AATTCCAC | 0.0242
TCTGGCCA | 0.0305
ATGGGGCG | 0.0291
CCTTAGCA | -0.132
AGAACTGA | 0.201
GCGATACC | -0.207
ATCGACGC | 0.0937
GGCCAGAC | -0.126
ATTTAGTA | 0.25
GGATTAAA | 0.0461
GCGGTTGA | 0.0185
AAACGTAT | 0.429
ACTGGCAA | 0.0324
ACCGTAAA | 0.206
GCGCAAAA | 0.0973
AAATGTGG | -0.0278
CACGTTGC | 0.175
AGGGAGTA | -0.0669
AAGTTCAT | -0.0766
GAGCGCGC | 0.122
GGACCCCC | -0.354
ACTTGCAC | 0.0619
AGACCACC | -0.113

Sequence | PBM E-score
AGGCGGCC | -0.284
AGGTCGAC | -0.0775
CCTTCAGC | -0.119
CCGCGGAG | -0.101
CAGACATA | 0.148
AAACGGCA | -0.0545
ACTAGCGA | -0.0298
ATACATCA | 0.382
GTCTTCAA | 0.083
GGGCTCAA | -0.347
CAGAGGTA | -0.0497
GATGCCGC | -0.277
GGATCCAC | -0.0558
CTAACACC | -0.143
CGAGCTCG | 0.129
GGCGTAGA | 0.118
AATTCGCA | 0.0664
GATCACGA | 0.158
CGCGTAGC | 0.199
CCCTACGG | -0.232
GACACTAC | 0.185
ATACTCGC | 0.0175
CTAGAATA | 0.122
ATCGCAAA | 0.108
GAGCACTA | -0.128

Sequence | PBM E-score
GCTAATCA | 0.0447
AAGATGGA | -0.132
AGCGTTGG | -0.018
GCTGCCCA | -0.295
TATTGCCA | -0.0948
GCGCTGGA | -0.19
CGAAGTCA | 0.0315
ATTCGCTC | 0.0906
GATGTTCC | -0.171
ACAGCTCC | 0.0194
TACAATCA | 0.156
AAATGTAG | 0.0634
ATTCGTAC | 0.314
AAGAGATA | 0.0394
GATCGACA | -0.0848
AATCTTGT | 0.149
GTCGCAGA | -0.063
ACCCTCCC | -0.112
CCATTTGA | -0.156
CGTGCTAA | 0.152
CTTCAGTC | -0.0551
TCTTCGCA | 0.112
AACGAAGG | -0.0456
TACTCCAA | -0.0998
ACGTCAAC | 0.469

Sequence | PBM E-score
GATCAGGC | -0.141
ATTGAGTG | -0.0538
TCCAAGGA | -0.196
AGTCTAGA | -0.124
ATATCTGC | 0.0709
ACGATAAA | 0.209
ACGTCCCT | 0.236
GTTGACTA | 0.0586
ACATGTAA | 0.26
AACTCTCT | -0.2
GCCTTGGA | -0.0789
AGAGGCTG | -0.273
AAAGTAGG | 0.112
CTCAAACA | 0.0238
TAGGCCCA | -0.255
ACTGCCCG | -0.212
ATGTGAAC | 0.0666
AGCGCTTA | 0.0816
ACGACAAC | 0.274
TAAATTAA | 0.0975
CCTTGATA | 0.112
ATTGCACC | -0.0136
ATCTAGCA | -0.00638
GGCGCTTA | -0.323
ATATTAAT | 0.208

Sequence | PBM E-score
CACCATTA | 0.126
ACTGCTTA | -0.0517
ATATGACG | 0.477
CATCTCGG | -0.18
AGAGCCAG | -0.21
ACCACAGA | -0.0766
AAATCGTC | 0.245
AACCACCA | -0.0654
AACGCTTC | 0.0266
CTAAAGAA | 0.126
ACCGCGGG | -0.241
AGCCGCAT | 0.15
ATGAAAAG | -0.116
CTCTAGAC | -0.155
ACATACTA | 0.177
ACTACCGG | -0.265
GCAATGGA | 0.0867
AAACAAGT | 0.045
CTGGGGCC | -0.281
AGCCCCGC | -0.0755
AAGTGGCA | -0.167
GATGCCCC | -0.274
ATTGACCA | -0.0744
TCGCAACA | 0.124
CTGCCTCA | -0.318

Sequence | PBM E-score
GATTAGCA | 0.0318
GTTAAACA | 0.212
CGCTAATA | 0.192
ACCTGACG | 0.173
ACCGGGTG | -0.224
ACCGTGAT | 0.0739
GCACCCCC | -0.0983
CTGACCAA | 0.0507
AGCAACCT | -0.00341
GGGGAACC | -0.27
TGGTCACA | 0.0263
AGCAGTAC | -0.0546
CTCTCGTA | -0.057
ACCACGTC | 0.363
ACCACATC | 0.098
ATGTTGAG | 0.0946
AACTTTGG | 0.0225
GCAATTCC | -0.104
AACAGGTG | -0.15
ACAATACC | 0.185
GGGGTACA | -0.176
CCTCAGAC | -0.208
CCAAATCG | -0.0738
AAATGCAG | -0.121
GCGCCATA | 0.0343

Sequence | PBM E-score
AGTTTGCA | -0.00634
TCAGGGAA | -0.138
TCTTGCCA | -0.00793
CACAGATC | -0.0707
AATGGGTC | -0.271
CGTCGTAA | 0.275
CCGATCCC | -0.362
AAGATTGG | 0.0148
GGCACGAC | -0.0826
AAATTCTG | 0.052
ACCTAGTG | 0.0829
CAACTTCC | 0.0216
AGAGACTA | -0.0943
CACAGCTC | -0.158
ACCTGTTC | -0.108
AAAGACAA | 0.208
CATGTGGG | -0.0963
AACGGTTC | -0.108
CACAGTGA | 0.0945
